In PubChem BioAssay AID1508642 (National Center for Advancing Translational Sciences (NCATS), 2021):
The campaign covered roughly 43,000 compounds. About 200 (0.47%) were called active. Roughly 12% stayed inconclusive and do not appear here. Calls come from the whole dose curve; as a rule, active = well fitted cell-killing curve with a large enough effect; inconclusive = small, poorly fitted or top-dose-only effect, or effect the other way; inactive = flat fitted curve, though single readings scatter. The list shows a part of the results.

Assay: Cell viability qHTS assay in S16 Pmp22-F2sN cells; note: nearly all actives have a fitted effect of over 65% in size
Conditions: S16 Pmp22-F2sN Schwann cells (luciferase reporters placed in the Pmp22 gene) viability, CellTiter-Glo, 24 h; series mostly up to 57.5 µM; activity change, negative = cytotoxicity: at the top concentration
Outline: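 CellTiter-Glo counter-screen, qHTS, 1536-well. Cells: S16(c9) Pmp22-F2sN, 500-1,000/well in DMEM + 10% FBS. Cpd 23 nL pin transfer, 24 h, 37C/5% CO2. Read: luminescence, CCD imager.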
% is set by controls: 0 for no effect and ±100 for the full control effect.

Row | SMILES | activity change, negative = cytotoxicity
1 | COc1ccc(Cl)cc1NC(=O)CSc1nnc(C)n2c1cc1sccc12 | inactive: 8.66%
2 | CCCOc1ccc(CNC(=O)C(C)n2nc(C)n3c(cc4occc43)c2=O)cc1 (centres undefined) | inactive: 8.66%
3 | Cc1ccc(C(=O)N2c3ncnn3C3(CCCCC3)[C@@H]3CCCC[C@@H]32)cc1 | inactive: -12.2%
4 | CCC(C)NC(=O)Cn1c(=O)n(CCCC(=O)NCc2ccc(C)cc2)c(=O)c2ccccc21 (centres undefined) | inactive: 6.55%
5 | Cc1cn2c(=O)cc(COc3cc(C)c(Cl)c(C)c3)nc2s1 | inactive: -1.16%
6 | CCOC(=O)C1CCN(c2cc3c(cc2NC(=O)c2ccc(OC)c(OC)c2)n(C)c(=O)n3C)CC1 | inactive: 2.23%
7 | CC1CCCCN1S(=O)(=O)c1ccc(F)c(C(=O)Nc2ccccc2C(F)(F)F)c1 (centres undefined) | inactive: -10.2%
8 | Cc1cc(Cl)ccc1NS(=O)(=O)c1ccc2c(c1)CCN2S(C)(=O)=O | inactive: -11.3%
9 | Cc1cc(=O)n(Cc2cccc(Br)c2)c2c1c(C)nn2-c1ccccc1 | inactive: 17.4%
10 | Cc1cccc(CNC(=O)Cc2csc3ccccc23)c1 | inactive: 6.72%
11 | COc1ccc(S(=O)(=O)N2CCN(Cc3nc4ccc(C)cc4o3)CC2)cc1OC | inactive: 0.68%
12 | CCOc1cc2sc(N3CCC(C(=O)Nc4ccc(C(C)C)cc4)CC3)nc2cc1Br | inactive: 0.0556%
13 | COc1ccc(CCNC(=O)Cc2c(C)c3c(cc(C)c4c(C)c(C)oc43)oc2=O)cc1OC | inactive: 8.02%
14 | CCOc1ccc(CNC(=O)CN2C(=O)CCn3nc(-c4cn(C)c5ccccc45)cc32)cc1OC | inactive: 16%
15 | CCOc1ccc(NC(=O)CSc2cc(C)c3ccccc3n2)cc1 | inactive: -3.69%
16 | O=C(NCc1cccs1)c1nn(-c2ccccc2)nc1CO | inactive: 4.45%
17 | Cc1c(C)n(Cc2ccc(F)cc2)c2ccc(C(=O)N3CCN(c4ccc(Cl)cc4)CC3)cc12 | inactive: -10.9%
18 | CC1(C(=O)NC2CCCCC2)Cc2ccccc2C(=O)N1Cc1ccc(Cl)cc1 (centres undefined) | inactive: 10.8%
19 | CC(=O)Nc1nonc1-c1nnc(SCc2ccc(F)cc2Cl)n1C | inactive: -2.94%
20 | Cc1cc(C)cc(NC(=O)c2sc3nc(-c4ccccc4)cn3c2C)c1 | inactive: -15.6%
21 | Cc1ccc(NC(=O)CN2Cc3ccccc3C2=O)c(C)c1 | inactive: 3.91%
22 | CCOC(=O)c1cccc(NC(=O)CCS(=O)(=O)c2ccc(Br)s2)c1 | inactive: -0.0744%
23 | CC(C)(C)OC(=O)N1CCC(c2c(C(=O)Nc3cccc(C(F)(F)F)c3)cnn2-c2ccc(F)cc2F)CC1 | inactive: -11.6%
24 | Cn1cnc2c(=O)oc3ccc(S(=O)(=O)N4CCN(c5ccccc5)CC4)cc3c21 | inactive: -21.2%
25 | CCN(CC)S(=O)(=O)c1ccc2c(c1)c(=O)c(C(=O)N(C)Cc1ccccc1)cn2C | inactive: 10.1%

Row | SMILES | activity change, negative = cytotoxicity
26 | Cc1cc(C)cc(NC(=O)CSc2nnc(COc3ccccc3Cl)o2)c1 | inactive: 13.5%
27 | Cc1ccc(C)c(NC(=O)CCCN2C(=O)COc3ccc(C)cc32)c1 | inactive: -12%
28 | Cc1cc(OCC(=O)Nc2cnn(CCCC(=O)O)c2)ccc1Cl | inactive: 14.9%
29 | O=C1CN(C(=O)c2ccc(Cl)cc2Cl)C(c2ccc(F)cc2)c2cc(F)ccc2N1 (centres undefined) | inactive: 3.09%
30 | CCOC(=O)C1CCN(C(=O)CSc2n[nH]c(-c3ccccc3Cl)n2)CC1 | inactive: 12%
31 | CN(C)c1ccc(C(CNC(=O)Cc2ccc(Cl)cc2)N2CCOCC2)cc1 (centres undefined) | inactive: 12.4%
32 | COc1ccc(C)cc1NC(=O)c1cc2c(s1)-c1ccccc1SC2 | inactive: 0.656%
33 | CCOC(=O)CC(NC(=O)Cn1nnc(-c2ccc(C(F)(F)F)cc2)n1)c1ccccc1Cl (centres undefined) | inactive: 3.95%
34 | CC(=O)Nc1cc(C(=O)NCc2ccc(F)cc2)ccc1Sc1ccc(C)cc1 | inactive: -8.04%
35 | CC1CCN(S(=O)(=O)c2ccc3ncn(CC(=O)Nc4ccccc4C(F)(F)F)c(=O)c3c2)CC1 | inactive: 0.07%
36 | Cc1nn(-c2ccccc2)c(-n2cccc2)c1C(=O)NCc1ccccc1Cl | inactive: -25.3%
37 | CCOc1ccc2c(c1)[C@@H]1C=CC[C@@H]1[C@H](c1ccccc1Cl)N2 | inactive: -18.6%
38 | Cc1ccc(CCNC(=O)CN2C(=O)COc3ccc(S(=O)(=O)N4CCCCC4)cc32)cc1 | inactive: 14.5%
39 | Cc1ccc(Nc2nnc(-c3ccc(C)c(S(=O)(=O)N4CCCCC4)c3)c3ccccc23)cc1 | inactive: -4.22%
40 | COc1ccc(OC)c(NCc2cccn2-c2nnc(N3CCC(C)CC3)s2)c1 | inactive: -19.5%
41 | Cc1ccc(CNC(C)c2ccccc2)s1 (centres undefined) | inactive: -2.37%
42 | CN(C(=O)CSc1nc2ccccc2n1CC(=O)N(C)c1ccc(F)cc1)c1ccccc1 | inactive: -2.38%
43 | CCN(c1ccccc1)S(=O)(=O)c1ccc(F)c(C(=O)Nc2ccc(C)cc2)c1 | inactive: -25.2%
44 | Cc1nc(-c2cccc(F)c2)sc1CCNC(=O)c1ccc(F)c(F)c1 | inactive: 4.33%
45 | CCOc1ccc(Nc2oc(-c3ccc(COc4ccccc4C)o3)nc2C#N)cc1 | inactive: -0.0845%
46 | Cc1ccc(CNC(=O)CN2C(=O)C3(SCC(=O)N3c3cc(C)cc(C)c3)c3ccccc32)cc1 (centres undefined) | inactive: -19.5%
47 | O=C(CSc1nccn1Cc1ccc(F)cc1)Nc1ccc2c(c1)OCO2 | inactive: -17.8%
48 | COc1ccc(CNCCSc2nnnn2-c2ccccc2)c(OC)c1 | inactive: -6.19%
49 | Cn1c(=O)c2sccc2n2c(CCC(=O)N3CCN(c4cccc(Cl)c4)CC3)nnc12 | inactive: 14.3%
